# Assay results reported in PubChem BioAssay AID1461 (National Center for Advancing Translational Sciences (NCATS), 2008).
# The campaign covered roughly 220,000 compounds. About 2,300 (1%) were called active. Inconclusive means that the source gave no clear call. Such entries were picked first, then a sample of the others. The call rests on the fitted dose curve; in most records, active means well fitted inhibition curve with a large enough effect; inconclusive means small, poorly fitted or top-dose-only effect, or effect the other way; inactive means no such curve, though single readings can be large or run the other way. No potency is given beside an inconclusive call; the fits are too rough.
# Molecular target: Neuropeptide S receptor (Homo sapiens) (UniProt Q6W5P4)
# Assay: qHTS Assay for Antagonists of the Neuropeptide S Receptor: cAMP Signal Transduction; further: nearly all actives have a fitted effect of over 50% in size
# Details: CHO-NPSR cells, cAMP TR-FRET, antagonist mode; activity change, negative = inhibition: at 38.3 µM (top of the series) unless noted
# On the % scale 0 is the no-effect control and ±100 the full control effect; potency means the concentration at half of the fitted maximal effect; tags describe the fitted curve by direction and shape.
# UniProt Q6W5P4, sequence (Q6W5P4 whole entry, looked up): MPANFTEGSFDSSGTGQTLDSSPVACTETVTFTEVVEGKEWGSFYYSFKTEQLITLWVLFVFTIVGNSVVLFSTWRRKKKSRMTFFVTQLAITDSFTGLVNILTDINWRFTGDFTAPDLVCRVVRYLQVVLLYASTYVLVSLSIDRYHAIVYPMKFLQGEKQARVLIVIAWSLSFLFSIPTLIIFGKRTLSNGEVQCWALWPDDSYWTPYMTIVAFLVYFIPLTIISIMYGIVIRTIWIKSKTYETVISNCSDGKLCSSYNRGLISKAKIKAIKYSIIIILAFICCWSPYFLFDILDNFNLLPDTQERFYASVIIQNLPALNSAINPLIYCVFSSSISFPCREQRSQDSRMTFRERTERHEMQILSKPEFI
Compound,Potency,"activity change, negative = inhibition"
O=C(O)CC/C(=N\NC(=O)CNC(=O)c1ccc(F)cc1)c1ccccc1,"inconclusive [activator, single point]",–
O=C(O)/C=C\C(=O)Nc1ccccc1C#Cc1ccc(Br)cc1,active: 12.6 µM,–
COc1ccc(-n2c(C)nc3sc4c(c3c2=O)CCCC4)cc1,–,inactive: -39.1%
NS(=O)(=O)c1ccc(NC(=S)N2CCN(Cc3ccc4c(c3)OCO4)CC2)cc1,–,inactive: 7.38%
COC(=O)c1ccc(Sc2ccccc2NS(=O)(=O)c2ccc(NC(C)=O)cc2)nc1,–,inactive: -10.5% [at 46.1 µM]
NC(=O)N/N=C/c1ccc(-c2ccc([N+](=O)[O-])cc2)o1,–,inactive: -29.1%
c1coc(-c2nnc(-c3ccc4c(c3)OCO4)o2)c1,"inconclusive [inhibitor, single point]",–
O=C(CSc1nnc(-c2cccs2)n1Cc1ccco1)c1ccc2c(c1)OCO2,"inconclusive [inhibitor, single point]",–
CC1CCN(c2c(NCC3CCC(C(=O)NC4CCCCCC4)CC3)c(=O)c2=O)CC1 (configuration not stated),–,inactive: -7.93%
Cc1ccc(CN(c2ccc(C(=O)NCc3ccc4c(c3)OCO4)cc2)S(C)(=O)=O)cc1,"inconclusive [inhibitor, partial curve]",–
Cc1ccc(Cn2c(C)nc3c(c2=O)c2nc4ccccc4nc2n3Cc2ccco2)cc1,"inconclusive [inhibitor, single point]",–
Cc1ccc(S(=O)(=O)NCc2ccco2)cc1C(N)=O,–,inactive: 9.28%
CC(C)C[C@@H](CSc1ccc(Br)cc1)N1CCN(CCc2ccccc2)CCC1=O,"inconclusive [inhibitor, single point]",–
Cc1cccc(C)c1NC(=O)COc1ccccc1C(=O)Nc1ccc(Br)cn1,"inconclusive [inhibitor, single point]",–
Cc1nc2ccccc2c(=O)n1NC(=O)Nc1ccccc1,–,inactive: 12.3% [at 46.1 µM]
CCOC(=O)c1ccc2c(c1)nc(SCC(=O)c1cc3ccccc3o1)n2CC,–,inactive: -14.9% [at 46.1 µM]
COc1ccc(S(=O)(=O)N(CCc2ccccc2)CC(=O)NC(C)C)cc1,–,inactive: -10.4% [at 46.1 µM]
Clc1ccc(-c2nc3nc4ccccc4nc3n2Cc2ccco2)cc1,"inconclusive [inhibitor, single point]",–
COC(=O)C1=NN(c2ccc(C)cc2)C2(S1)SC(C(C)=O)=C(C)N2c1ccccc1 (configuration not stated),"inconclusive [inhibitor, single point]",–
COc1ccc(C(=O)/C=C/c2ccc(OC)c(Cn3nnc4ccccc43)c2)cc1,–,inactive: -18.1%
Cc1c(C#N)c(N=CN(C)C)c(C(=O)c2ccccc2)n1-c1ccc(Br)cc1,"inconclusive [inhibitor, single point]",–
C=CCn1c(NC(=O)c2ccc(Br)o2)c(C(=O)OCC)sc1=S,–,inactive: -18.7% [at 46.1 µM]
O=C(NCCCn1ccnc1)c1cc2nc(-c3ccc(Br)cc3)cc(C(F)(F)F)n2n1,–,inactive: -17.3%
COC(=O)/C(=C(/F)Sc1cc(C)c(O)c(C)c1)C(F)(F)F,–,inactive: -21.5% [at 46.1 µM]

Compound,Potency,"activity change, negative = inhibition"
COc1ccc(N=Cc2sc(O)c3ccccc23)cc1,active: 12.6 µM,–
CCCCc1sc(-c2c(C#N)c(N)nc3c2CCCCC3)cc1[N+](=O)[O-],"inconclusive [inhibitor, single point]",–
Cc1ccc(CNC(=O)c2oc3ccc(S(=O)(=O)N4CCOCC4)cc3c2C)cc1,"inconclusive [inhibitor, partial curve]",–
CC1=C(CC(=O)O)c2cc(F)ccc2/C1=C\c1ccc(S(C)(=O)=O)cc1,"inconclusive [inhibitor, partial curve]",–
CCc1cc2c(=O)c(-c3cnn(-c4ccccc4)c3)c(C)oc2cc1OCC(=O)Nc1cccc(C)c1,"inconclusive [inhibitor, single point]",–
O=C(NC1CCCCC1)C(c1ccc2ncccc2c1)N(Cc1ccccc1)C(=O)c1ccc2c(c1)OCCO2 (configuration not stated),"inconclusive [inhibitor, single point]",–
C=C(C(=O)c1ccccc1)C(C)C(=C)C(=O)c1ccccc1,active: 10 µM,–
COc1cc(CNCc2ccncc2)cc(Br)c1OCc1ccccc1F,"inconclusive [inhibitor, single point]",–
O=C1c2ccccc2C(=O)C1c1ccc2ccccc2n1,–,inactive: -12% [at 46.1 µM]
C=CCNC(=O)/C(C#N)=C/c1cc(Br)ccc1OC,–,inactive: -15.5%
Cc1ccc(OCc2nnc(SCc3nc4ccccc4[nH]3)n2Cc2ccco2)cc1,"inconclusive [inhibitor, partial curve]",–
Cc1ccc(/C=C2\SC(=S)N(CC(=O)Nc3ncc(Cc4ccccc4Cl)s3)C2=O)cc1,"inconclusive [inhibitor, full curve, poor fit]",–
CCOC(=O)C1CCN(C(=O)CSc2cc(=O)n(C)c3ccccc23)CC1,"inconclusive [inhibitor, single point]",–
Cc1ccc(C)c(NC(=S)NC(NC(=O)Cc2cccc3ccccc23)C(Cl)(Cl)Cl)c1 (configuration not stated),active: 7.94 µM,–
COC(=O)CSc1nnc(-c2ccc(NS(=O)(=O)c3ccccc3)cc2)o1,"inconclusive [inhibitor, partial curve]",–
Cc1ccc(-c2nn(-c3ccccc3)cc2/C=C/C(=O)OCC(=O)NC2CC2)o1,"inconclusive [inhibitor, single point]",–
Cc1oc2ccc(NS(=O)(=O)c3ccc(C(C)(C)C)cc3)cc2c1C(=O)Nc1ccccc1,"inconclusive [inhibitor, partial curve]",–
CCc1ccc(OCC(=O)c2c(O)c3ccccc3oc2=O)cc1,–,inactive: -3.86%
Cc1c(Cl)cnc(NC(=O)COC(=O)c2nn(C)c(=O)c3ccccc23)c1Cl,–,inactive: 17.6%
CCO[C@H]1OC(C(=O)Nc2ccccc2)=C[C@@H](c2ccc(Br)cc2)[C@@H]1CCCO,"inconclusive [activator, partial curve]",–
O=C(Cc1ccc(S(=O)(=O)N2CCOCC2)s1)Nc1ccc2c(c1)CCC2,–,inactive: -12% [at 46.1 µM]
COc1ccc(N(CC(=O)NCCC2=CCCCC2)S(=O)(=O)c2ccccc2F)cc1,"inconclusive [inhibitor, single point]",–
c1cnc(N2CCN(c3ncnc4c3oc3ccccc34)CC2)nc1,–,inactive: -8.33% [at 46.1 µM]
Cc1ccc(/C=C2\SC(N3CCN(C(c4ccccc4)c4ccccc4)CC3)=NC2=O)o1,"inconclusive [inhibitor, full curve, poor fit]",–

Compound,Potency,"activity change, negative = inhibition"
O=[N+]([O-])c1ccc2c(c1)ncn2-c1ccccc1,–,inactive: -4.94%
CCOc1ccccc1NC(=O)Cn1nnc(C(=O)NCc2ccco2)c1N,"inconclusive [activator, partial curve]",–
Clc1ccc(Oc2nc(Oc3ccc(Cl)cc3)nc(N3CCOCC3)n2)cc1,"inconclusive [inhibitor, single point]",–
CCOc1ccc(C(=O)N2CCN(c3cccc(C)c3C)CC2)cc1,"inconclusive [inhibitor, single point]",–
O=C(O)Cc1sc(-c2ccccc2Cl)nc1-c1ccccc1,–,inactive: -46.7%
CN=C(NC#N)Nc1ccc(C2=NNC(=O)CC2C)cc1 (configuration not stated),"inconclusive [inhibitor, single point]",–
O=C(O)CCCn1nc(C(F)(F)F)c2c1CCCCC2,–,inactive: -7.58% [at 46.1 µM]
CCOC(=O)c1cnc(NCc2ccccc2)nc1C,"inconclusive [inhibitor, single point]",–
COc1cc(C(Nc2ccccn2)c2ccc3ccc(C)nc3c2O)cc(OC)c1O (configuration not stated),"inconclusive [inhibitor, single point]",–
Cc1cccc(NC(=O)c2ccc(C3SCC(=O)N3CCc3ccccc3)cc2)c1C (configuration not stated),"inconclusive [inhibitor, partial curve, poor fit]",–
CC(=O)[C@@]1(O)CC[C@H]2[C@@H]3C[C@H](C)C4=CC(=O)CC[C@]4(C)[C@H]3CC[C@@]21C,–,inactive: -31.7%
Cc1cc(NC(=O)CSc2nc(-c3cccnc3)ccc2C#N)no1,"inconclusive [inhibitor, single point]",–
Cc1sc2nc(CSc3ccccc3)nc(N3CCN(C)CC3)c2c1C,–,inactive: -11.8%
CN1CCN(NC(=O)c2cc(-c3cccc(Cl)c3)nc3ccccc23)CC1,–,inactive: -11.3%
CN(C)CCNc1ccc(Cl)cc1[N+](=O)[O-],"inconclusive [activator, full curve]",–
NC1=NC[C@H](Cc2ccccc2)N1CCCCC1CCCCC1,"inconclusive [inhibitor, single point]",–
COc1ccc(N/N=C(/C)c2cnnc(-c3ccccc3)n2)cc1,–,inactive: -8.67%
COc1cc(/C=N/NC(=O)Nc2ccccc2)ccc1OCCOc1ccccc1C,"inconclusive [inhibitor, single point]",–
Cc1cccc(-n2ncc3c(N)ncnc32)c1,"inconclusive [inhibitor, single point]",–
Cn1c(-[n+]2c(-c3ccccc3)cc(-c3ccccc3)cc2-c2ccccc2)nc2cc([N+](=O)[O-])ccc21,active: 10 µM,–
CC1CCCN(c2ccc(C(=O)NCCc3ccccc3)cn2)C1 (configuration not stated),"inconclusive [inhibitor, single point]",–
c1ccc(CN2CCC(Nc3nc(-c4ccccc4)nc4ccccc34)CC2)cc1,"inconclusive [inhibitor, single point]",–
CCNC(=S)NNC(=O)CSc1nc2ccccc2n1C,"inconclusive [activator, full curve]",–
CN(C)S(=O)(=O)c1ccc(C(=O)Nc2ccccn2)cc1,"inconclusive [inhibitor, single point]",–
